# Measurements reported in PubChem BioAssay AID485294 (National Center for Advancing Translational Sciences (NCATS), 2010).
# The campaign covered roughly 370,000 compounds. About 150 (0.041%) were called active. The inconclusive results got no clear call from the source; some entries with a clear call stand among them for comparison. Calls come from the whole dose curve; as a rule, active = well fitted inhibition curve with a large enough effect; inconclusive = small, poorly fitted or top-dose-only effect; inactive = flat fitted curve, though single readings scatter. Potencies of inconclusive entries are left out as doubtful fits.
# Molecular target: Beta-lactamase (Escherichia coli (strain K12)) (UniProt P00811)
# Sequence of UniProt P00811 (P00811 whole entry, looked up): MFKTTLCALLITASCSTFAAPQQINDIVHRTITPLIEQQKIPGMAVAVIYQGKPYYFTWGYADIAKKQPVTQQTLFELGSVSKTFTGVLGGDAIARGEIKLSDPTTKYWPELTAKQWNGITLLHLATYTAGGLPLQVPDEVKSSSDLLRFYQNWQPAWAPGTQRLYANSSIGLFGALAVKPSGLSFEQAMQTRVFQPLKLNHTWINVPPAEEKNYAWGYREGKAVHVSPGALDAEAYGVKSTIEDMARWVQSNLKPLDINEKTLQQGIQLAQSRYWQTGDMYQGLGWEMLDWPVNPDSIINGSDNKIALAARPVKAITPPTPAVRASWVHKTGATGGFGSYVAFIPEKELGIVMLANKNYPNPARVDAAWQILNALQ
# Test: qHTS Inhibitors of AmpC Beta-Lactamase (assay with detergent); note: nearly all actives have a fitted effect of over 25% in size
# Details: AmpC hydrolysis of nitrocefin, absorbance 480 nm, 0.01% Triton; series mostly up to 114 µM
# In short: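 AmpC (5.3 nM in the dispensed reagent) in 20 mM phosphate pH 7.0 with 0.01% (detergent screen) or 0.0001% Triton X-100 was preincubated with compounds for 15 min at room temperature. Nitrocefin was then added from an 800 uM solution, and hydrolysis was followed at 480 nm.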
# Potency is the fitted concentration of half-maximal effect; tags give direction and shape of the fitted curve.
row,SMILES,Potency
1,CN(C)c1ccc(/C=N/NC2=NS(=O)(=O)c3ccccc32)cc1,inactive
2,O=c1c2ccccc2nc(/C=C/c2ccc3c(c2)OCO3)n1-c1ccccc1,"inconclusive [inhibitor, single point]"
3,C=CCOc1cccc(/C=N/NC(=O)C(OC)c2ccccc2)c1 (stereo unspecified),"inconclusive [inhibitor, full curve, poor fit]"
4,Cc1ccc(S(=O)(=O)N2CCN(C(=O)COC(=O)/C=C/c3ccccc3)CC2)c(C)c1,"inconclusive [inhibitor, full curve, poor fit]"
5,c1ccc2c(c1)[nH]c1c(N3CCC4(CC3)OCCO4)ncnc12,"inconclusive [inhibitor, partial curve, poor fit]"
6,Cc1cc(C(=O)CSc2nnc(Nc3ccccc3)s2)c(C)n1CC1CCCO1 (stereo unspecified),"inconclusive [inhibitor, partial curve, poor fit]"
7,COc1ccccc1C(=O)Nc1ccc2c(c1)nc(CCNC(=O)c1ccco1)n2C,inactive
8,CCCc1nc2ccccc2c(C(=O)OCC(=O)NCc2ccc3c(c2)OCO3)c1CC,inactive
9,COc1ccc(N2Cc3ccccc3C2=NC(=O)c2cncc(Br)c2)cc1,"inconclusive [inhibitor, full curve, poor fit]"
10,CCOC(=O)c1ccccc1NC(=O)CN(c1ccc(OCC)cc1)S(C)(=O)=O,inactive
11,CC(=O)c1cccc(N/C=C\C(=O)c2ccc(C)cc2)c1,inactive
12,O=C1CN(C(=O)CSc2nnnn2C2CC2)c2ccccc2N1,"inconclusive [inhibitor, full curve, poor fit]"
13,Cc1[nH]c2ccccc2c1/C=C/C(=O)c1ccccc1,inactive
14,Cc1nc2c(c(C)nn2-c2ccccc2)c(C)c1CCC(=O)N1CCC2(CC1)OCCO2,"inconclusive [inhibitor, single point]"
15,CC(C)(C)c1ccc(OCC(=O)NCc2ccco2)cc1,"inconclusive [inhibitor, full curve, poor fit]"
16,CN(C)C(CNC(=O)c1cccc(S(=O)(=O)N2CC3(C)CC2CC(C)(C)C3)c1)c1ccco1 (stereo unspecified),"inconclusive [inhibitor, full curve, poor fit]"
17,Cc1nc2ccccc2c(=O)n1NC(=O)c1ccco1,inactive
18,Cc1cc(C)c(S(C)(=O)=O)c(N(C)N)n1,"inconclusive [inhibitor, full curve]"
19,COc1ccc(C(=O)OCc2c(C)noc2C)cc1,"inconclusive [inhibitor, partial curve]"
20,CCSc1nnc(NC(=O)c2ccccc2)s1,"inconclusive [inhibitor, full curve, poor fit]"
21,O=C(CSc1ccccc1C(=O)O)c1ccccc1,inactive
22,COC(=O)c1c(C(=O)OC)c2ccncn2c1Cl,"inconclusive [inhibitor, single point]"

row,SMILES,Potency
1,O=C(CCNC(=O)c1ccc(Cl)cc1)Nc1c(F)c(F)cc(F)c1F,"inconclusive [inhibitor, full curve]"
2,COc1cc(NC(=O)c2ccccc2F)ccc1NC(=O)c1cc2ccccc2o1,inactive
3,Nc1nc(SCc2ccccc2)ns1,inactive
4,CCOC(=O)c1ccc(COC(=O)c2cc3ccccc3oc2=O)o1,"inconclusive [inhibitor, partial curve]"
5,CCN(CC)S(=O)(=O)c1ccc(Cl)c(NC(=O)c2ccc(C#N)cc2)c1,"inconclusive [inhibitor, partial curve, poor fit]"
6,Cc1ccc(S(=O)(=O)N2CC(O)C[C@H]2C(=O)OCC(=O)Nc2ccc(N3CCOCC3)cc2)cc1C (stereo partly specified),"inconclusive [inhibitor, full curve, poor fit]"
7,O=C(Nc1nc2ccc(F)cc2s1)c1cccc(S(=O)(=O)N2CCc3ccccc32)c1,inactive
8,CCOC(=O)c1cn(Cc2ccc(Br)cc2)nn1,"inconclusive [inhibitor, full curve, poor fit]"
9,COC(=O)c1ccccc1NC(=O)Cn1nnc(-c2ccc(OC)cc2)n1,"inconclusive [inhibitor, partial curve, poor fit]"
10,CN(C)S(=O)(=O)Nc1ccc(NS(=O)(=O)N(C)C)c(S(=O)(=O)c2ccccc2)c1,"inconclusive [inhibitor, partial curve, poor fit]"
11,CCN(CC)C(=O)C1CCCN(c2ccc([N+](=O)[O-])cc2/C=N/NC(=O)c2ccc([N+](=O)[O-])cc2)C1 (stereo unspecified),inactive
12,COC(=O)c1ccccc1NC(=S)NC(=O)c1ccccc1,"inconclusive [inhibitor, full curve]"
13,Cc1cc(C)nc(N2C(=O)CC(Cc3ccccc3)C2=O)n1 (stereo unspecified),"inconclusive [inhibitor, full curve, poor fit]"
14,CC1(C(=O)NC2CCCCCCC2)CCC(=O)N1Cc1cccnc1 (stereo unspecified),"inconclusive [inhibitor, full curve]"
15,O=S(=O)(NCCc1ccncc1)c1cc(Br)ccc1F,"inconclusive [inhibitor, partial curve]"
16,COc1ccc(-c2cc(C(=O)NCC3CCCO3)c3ccccc3n2)c(OC)c1 (stereo unspecified),inactive
17,Cc1cc([N+](=O)[O-])nn1CC(=O)N1CCOCC1,"inconclusive [inhibitor, full curve]"
18,Cc1cccc(NC(=O)CCS(=O)(=O)c2cccc3nonc23)c1C,"inconclusive [inhibitor, full curve, poor fit]"
19,CCc1nn2c(NCCCO)cc(C)nc2c1-c1ccc(F)cc1,"inconclusive [inhibitor, full curve]"
20,COc1ccc(C2NC3=C(CCC3)C3(C#N)C(OC)(OC)N=C(N)C23C#N)cc1 (stereo unspecified),"inconclusive [inhibitor, full curve, poor fit]"
21,CCOC(=O)C(Cc1ccc(OC)c([N+](=O)[O-])c1)NC(=O)CCC(=O)Nc1ccc(OC)cc1 (stereo unspecified),"inconclusive [inhibitor, single point]"
22,COc1ccc(-c2nn(CCC#N)cc2C(=O)NCc2ccccc2)cc1[N+](=O)[O-],"inconclusive [inhibitor, full curve, poor fit]"

row,SMILES,Potency
1,Cc1cc(OC(C)C(=O)NCC2CCC(C(=O)O)CC2)c2c(C)cc(=O)oc2c1 (stereo unspecified),"inconclusive [inhibitor, full curve, poor fit]"
2,O=C(Cn1nc(Cc2cccnc2)c2ccccc2c1=O)NCC1CCCO1 (stereo unspecified),"inconclusive [inhibitor, full curve]"
3,COc1ccc(COC(=O)C2CC(=O)N(Cc3ccc(C)cc3)C2)cc1 (stereo unspecified),inactive
4,O=C(COc1ccc(Cl)cc1Cl)NN=C1c2ccccc2-c2ccccc21,"inconclusive [inhibitor, single point]"
5,CCOc1ccccc1OCC(=O)O,"inconclusive [inhibitor, partial curve, poor fit]"
6,COc1ccc(OC)c(NC(=O)CN2C(=O)NC3(CCCc4ccccc43)C2=O)c1 (stereo unspecified),inactive
7,Cc1ccc(C(=O)N/N=c2\oc3ccccc3cc2C(N)=O)cc1,"inconclusive [inhibitor, full curve, poor fit]"
8,NNC(=O)C=C1CCN(c2ncc(C(F)(F)F)cc2Cl)CC1,inactive
9,CCOC(=O)C1CCCN(Cc2cc(OC)c(O)c(OC)c2)C1 (stereo unspecified),"inconclusive [inhibitor, full curve, poor fit]"
10,COc1ccc(C(=O)N(C)C2CCCN(Cc3ccccc3F)C2)cc1OC (stereo unspecified),"inconclusive [inhibitor, partial curve]"
11,Cc1cccc2nc(-c3ccco3)c(Nc3ccc4c(c3)OCCO4)n12,"inconclusive [inhibitor, partial curve]"
12,COc1ccc(C2C(C(=O)OCC(=O)N3CCCCC3)CCC(=O)N2c2ccc(OC)cc2)cc1 (stereo unspecified),"inconclusive [inhibitor, single point]"
13,OC(CCN1CCOCC1)c1ccccc1 (stereo unspecified),"inconclusive [inhibitor, partial curve, poor fit]"
14,CC(=O)Nc1ccc(S(=O)(=O)NC2(C(F)(F)F)NC(=O)N(C3CCCC3)C2=O)cc1 (stereo unspecified),"inconclusive [inhibitor, full curve, poor fit]"
15,CCc1ccccc1NC(=O)CNC(=O)CCc1nc2sc3c(c2c(=O)[nH]1)CCCC3,"inconclusive [inhibitor, single point]"
16,CC(NC(N)=O)C(=O)Nc1ccc(Cl)c(S(=O)(=O)Nc2ccc(Cl)cc2)c1 (stereo unspecified),"inconclusive [inhibitor, full curve, poor fit]"
17,CN(C)C(=O)c1cnc(Sc2ncc(C(F)(F)F)cc2Cl)n1C,"inconclusive [inhibitor, full curve, poor fit]"
18,Cc1ccccc1S(=O)(=O)NC1OC(=O)C(Oc2ccccc2)=C1Br (stereo unspecified),inactive
19,C=CCn1c(SCC(=O)C(C)(C)C)nnc1-c1ccccn1,"inconclusive [inhibitor, single point]"
20,Cc1[nH]c(C)c(S(=O)(=O)NCCc2ccc(S(N)(=O)=O)cc2)c1C(=O)N1CCCC1,"inconclusive [inhibitor, single point]"
21,CCc1cc(=O)oc2cc(C)cc(OCC(=O)NCc3ccncc3)c12,inactive
22,CCOc1ccc(NC(=O)CSc2nc3nc4c(cc3c(=O)n2CC)COC(C)(C)C4)cc1,inactive
